Laboratory results published in patent US20180230235A1 (Affibody, published 2018).

Assays:
[1] = biological target: T1, CAIX on the surface of LS174T and SK-RC-52 cells (UniProt Q16790 38-459); assay: flow cytometry titration on SK-RC-52 cells
[2] = biological target: T2, Human CAIX (carbonic anhydrase IX) (human, UniProt Q16790 59-414); assay: Biacore, Z variant over immobilized human CAIX, 1:1 model
[3] = biological target: T1, CAIX on the surface of LS174T and …; assay: flow cytometry titration on SK-RC-52 cells, EC50 compared with that of Z08693; told of the maturated binders as a group
[4] = biological target: T1, CAIX on the surface of LS174T and …; assay: blocking of cell-bound radioactivity on SK-RC-52 cells: 100-fold excess of the unlabeled Z variant 15 min before 13 nM 99mTc-(HE)3-Z09781 [panel A]
[5] = biological target: T1, CAIX on the surface of LS174T and …; assay: LigandTracer on SK-RC-52 cells, first binding event (KD1)
[6] = biological target: T1, CAIX on the surface of LS174T and …; assay: LigandTracer on SK-RC-52 cells, first binding event (ka1)
[7] = biological target: T1, CAIX on the surface of LS174T and …; assay: LigandTracer on SK-RC-52 cells, first binding event (kd1)
[8] = biological target: T1, CAIX on the surface of LS174T and …; assay: LigandTracer on SK-RC-52 cells, second binding event (KD2)
[9] = biological target: T1, CAIX on the surface of LS174T and …; assay: LigandTracer on SK-RC-52 cells, second binding event (ka2)
[10] = biological target: T2, Human CAIX (carbonic anhydrase IX); assay: ELISA screening, periplasmic Z-Z03639 fusion captured by His6-(Z01157)2, biotinylated human CAIX 0.5 or 1 ug/ml
[11] = biological target: T2, Human CAIX (carbonic anhydrase IX); assay: ELISA titration of biotinylated human CAIX on captured Z-ABD fusion
[12] = biological target: T2, Human CAIX (carbonic anhydrase IX); assay: ELISA screening, captured Z-ABD fusion, biotinylated human CAIX 0.25 ug/ml

B1: His6-Z06936 (designed binder)
chain: MGSSHHHHHHLQVDAKYAKENLFAGWEIDDLPNLTEDQRNAFIYKLWDDPSQSSELLSEAKKLNDSQAPKVD
notes: monomer
Q: B1 was tested. Which EC50 [1] did it give?
A: 15 nM

Q: What about the Kd [2] of the same binder?
A: 27 nM

Q: What about the koff [2] of the same binder?
A: 0.00208 s⁻¹

Q: What about the kon [2] of the same binder?
A: 77700 M⁻¹ s⁻¹

Q: And the “fold increase in binding ability against Z08693” value (“fold increase in binding ability” for short) [3]?
A: ~100 times

B2: His6-Z06919 (designed binder)
chain: MGSSHHHHHHLQVDAKYAKEHLFAGWEIEDLPNLTEYQRNAFIYKLWDDPSQSSELLSEAKKLNDSQAPKVD
notes: monomer
Q: Which EC50 [1] does the source give for B2 here?
A: 20 nM

Q: What about the “fold increase in binding ability” value [3] of the same binder?
A: ~100 times

B3: His6-Z06976 (designed binder)
chain: MGSSHHHHHHLQVDAKYAKENIFAGWEIDDLPNLTDEQRNAFIYKLWDDPSQSSELLSEAKKLNDSQAPKVD
notes: monomer
Q: What does the source list for B3?
A: EC50 [1]: 13 nM; Kd [2]: 32 nM; koff [2]: 0.00292 s⁻¹; kon [2]: 90400 M⁻¹ s⁻¹; fold increase in binding ability against Z08693 [3]: ~100 times

B4: His6-Z06961 (designed binder)
chain: MGSSHHHHHHLQVDAKYAKENLFAGWEIGDLPNLTEQQRHAFIYKLWDDPSQSSELLSEAKKLNDSQAPKVD
notes: monomer
Q: B4 was tested. Which EC50 [1] did it give?
A: 17 nM

Q: What about the “fold increase in binding ability” value [3] of the same binder?
A: ~100 times

B5: His6-Z06984 (designed binder)
chain: MGSSHHHHHHLQVDAKYAKENIFAGWEIDDLPNLTTYQRNAFIYKLWDDPSQSSELLSEAKKLNDSQAPKVD
notes: monomer
Q: Which results are given for B5?
A: EC50 [1]: 11 nM; fold increase in binding ability against Z08693 [3]: ~100 times

B6: His6-Z06959 (designed binder)
chain: MGSSHHHHHHLQVDAKYAKENLFAGWEITDLPNLTIEQRNAFIYKLWDDPSQSSELLSEAKKLNDSQAPKVD
notes: monomer
Q: With B6 as the binder, how does the EC50 [1] read?
A: 18 nM

Q: And the “fold increase in binding ability” value [3]?
A: ~100 times

B7: His6-Z07091 (designed binder)
chain: MGSSHHHHHHLQVDAKYAKENLFAGWEIDDLPNLTESQRNAFIYKLWDDPSQSSELLSEAKKLNDSQAPKVD
notes: monomer
Q: What does the source list for B7?
A: EC50 [1]: 18 nM; fold increase in binding ability against Z08693 [3]: ~100 times

B8: His6-Z06986 (designed binder)
chain: MGSSHHHHHHLQVDAKYAKENLFAGWEINDLPNLTEYQRNAFIYKLWDDPSQSSELLSEAKKLNDSQAPKVD
notes: monomer
Q: For B8, which EC50 [1] is on record?
A: 12 nM

Q: What about the “fold increase in binding ability” value [3] of the same binder?
A: ~100 times

B9: His6-Z08693 (designed binder)
chain: MGSSHHHHHHLQVDAKYAKEWKFASIEIADLPNLTQHQKDAFIFKLWDDPSQSSELLAEAKKLNDSQAPKVD
notes: also called Z04196 with the amino acid substitution A54S
Q: With B9 as the binder, how does the EC50 [1] read?
A: 1820 nM

B10: His6-Z06999 (designed binder)
chain: MGSSHHHHHHLQVDAKYAKEHLFAGWEITDLPNLTEQQRNAFIYKLWDDPSQSSELLSEAKKLNDSQAPKVD
notes: monomer
Q: Which EC50 [1] does the source give for B10 here?
A: 16 nM

Q: And the “fold increase in binding ability” value [3]?
A: ~100 times

B11: His6-Z07084 (designed binder)
chain: MGSSHHHHHHLQVDAKYAKEWWWAGIEIADLPNLTQQQRDAFIYKLWDDPSQSSELLSEAKKLNDSQAPKVD
notes: monomer
Q: Which EC50 [1] does the source give for B11 here?
A: 37 nM

Q: And the Kd [2]?
A: 18 nM

Q: And the koff [2]?
A: 0.0106 s⁻¹

Q: And the kon [2]?
A: 598000 M⁻¹ s⁻¹

Q: And the “fold increase in binding ability” value [3]?
A: ~100 times

B12: His6-Z06942 (designed binder)
chain: MGSSHHHHHHLQVDAKYAKENLFAGWEISDLPNLTDYQRNAFIYKLWDDPSQSSELLSEAKKLNDSQAPKVD
notes: monomer
Q: With B12 as the binder, how does the EC50 [1] read?
A: 14 nM

Q: What about the Kd [2] of the same binder?
A: 11 nM

Q: And the koff [2]?
A: 0.00188 s⁻¹

Q: And the kon [2]?
A: 167000 M⁻¹ s⁻¹

Q: And the “fold increase in binding ability” value [3]?
A: ~100 times

B13: His6-Z07089 (designed binder)
chain: MGSSHHHHHHLQVDAKYAKENIFAGWEITDLPNLTVQQRHAFIYKLWDDPSQSSELLSEAKKLNDSQAPKVD
notes: monomer
Q: Which results are given for B13?
A: EC50 [1]: 12 nM; fold increase in binding ability against Z08693 [3]: ~100 times

B14: (HE)3-Z09781, unlabeled (designed binder)
chain: HEHEHEAEAKYAKENLFAGWEIDDLPNLTEDQRNAFIYKLWDDPSQSSELLSEAKKLNDSQAPKVD
notes: also called unlabeled Z variant
Q: Does B14 bind [4]?
A: binds

B15: ^99mTc-(HE)3-Z09781 (designed binder)
chain: HEHEHEAEAKYAKENLFAGWEIDDLPNLTEDQRNAFIYKLWDDPSQSSELLSEAKKLNDSQAPKVD
modifications: [99mTc(CO)3]+ bound to the N-terminal HEHEHE tag
notes: also called 99mTc-labeled (HE)3-Z09781; ^99mTc-Z09781
Q: Which Kd [5] does the source give for B15 here?
A: ≤ 1.3 nM

Q: And the kon [6]?
A: 7400 M⁻¹ s⁻¹

Q: What about the koff [7] of the same binder?
A: ≤ 1e-05 s⁻¹

Q: What about the Kd [8] of the same binder?
A: 130 nM

Q: What about the kon [9] of the same binder?
A: 13000 M⁻¹ s⁻¹

B16: ^99mTc-(HE)3-Z09784 (designed binder)
chain: HEHEHEAEAKYAKEWWWAGIEIADLPNLTQQQRDAFIYKLWDDPSQSSELLSEAKKLNDSQAPKVD
modifications: [99mTc(CO)3]+ bound to the N-terminal HEHEHE tag
notes: also called 99mTc-labeled (HE)3-Z09784
Q: What does the source list for B16?
A: Kd [5]: 9.1 nM; kon [6]: 12000 M⁻¹ s⁻¹; koff [7]: 0.00011 s⁻¹; Kd [8]: 75 nM; kon [9]: 34000 M⁻¹ s⁻¹

B17: (HE)3-Z09784, unlabeled (designed binder)
chain: HEHEHEAEAKYAKEWWWAGIEIADLPNLTQQQRDAFIYKLWDDPSQSSELLSEAKKLNDSQAPKVD
notes: as for B14
Q: Does B17 bind [4]?
A: binds

B18: ^99mTc-(HE)3-Z09783 (designed binder)
chain: HEHEHEAEAKYAKENIFAGWEIDDLPNLTDEQRNAFIYKLWDDPSQSSELLSEAKKLNDSQAPKVD
modifications: [99mTc(CO)3]+ bound to the N-terminal HEHEHE tag
notes: also called 99mTc-labeled (HE)3-Z09783
Q: Which results are given for B18?
A: Kd [5]: 4.5 nM; kon [6]: 5900 M⁻¹ s⁻¹; koff [7]: 2.7e-05 s⁻¹; Kd [8]: 61 nM; kon [9]: 3800 M⁻¹ s⁻¹

B19: (HE)3-Z09782, unlabeled (designed binder)
chain: HEHEHEAEAKYAKENLFAGWEISDLPNLTDYQRNAFIYKLWDDPSQSSELLSEAKKLNDSQAPKVD
notes: as for B14
Q: Does B19 bind [4]?
A: binds

B20: ^99mTc-(HE)3-Z09782 (designed binder)
chain: HEHEHEAEAKYAKENLFAGWEISDLPNLTDYQRNAFIYKLWDDPSQSSELLSEAKKLNDSQAPKVD
modifications: [99mTc(CO)3]+ bound to the N-terminal HEHEHE tag
notes: also called 99mTc-labeled (HE)3-Z09782
Q: For B20, which Kd [5] is on record?
A: 6.1 nM

Q: And the kon [6]?
A: 3300 M⁻¹ s⁻¹

Q: What about the koff [7] of the same binder?
A: 1.9e-05 s⁻¹

B21: (HE)3-Z09783, unlabeled (designed binder)
chain: HEHEHEAEAKYAKENIFAGWEIDDLPNLTDEQRNAFIYKLWDDPSQSSELLSEAKKLNDSQAPKVD
notes: as for B14
Q: Does B21 bind [4]?
A: binds

B22: AQHDEALE-[Z04187]-VDYV-[Z03639]-YVPG (designed binder)
chain: AQHDEALEVDAKYAKENLWAGWEIDDLPNLTHSQRNAFIYKLWDDPSQSSELLAEAKKLNDAQAPKVDYVVDNKFNKELGWATWEIFNLPNLNGVQVKAFIDSLRDDPSQSANLLAEAKKLNDAQAPKYVPG
notes: periplasmic fraction
Q: Does B22 bind [10]?
A: binds

B23: AQHDEALE-[Z04191]-VDYV-[Z03639]-YVPG (designed binder)
chain: AQHDEALEVDAKYAKEDVNAWQEIIKLPNLTIFQRDAFIYKLWDDPSQSSELLAEAKKLNDAQAPKVDYVVDNKFNKELGWATWEIFNLPNLNGVQVKAFIDSLRDDPSQSANLLAEAKKLNDAQAPKYVPG
notes: periplasmic fraction
Q: Does B23 bind [10]?
A: binds

B24: AQHDEALE-[Z04421]-VDYV-[Z03639]-YVPG (designed binder)
chain: AQHDEALEVDAKYAKEDRYAWTEIHKLPNLTVRQQNAFIYKLWDDPSQSSELLAEAKKLNDAQAPKVDYVVDNKFNKELGWATWEIFNLPNLNGVQVKAFIDSLRDDPSQSANLLAEAKKLNDAQAPKYVPG
notes: periplasmic fraction
Q: Does B24 bind [10]?
A: binds

B25: AQHDEALE-[Z04208]-VDYV-[Z03639]-YVPG (designed binder)
chain: AQHDEALEVDAKYAKEHEWAGVEIQSLPNLTTQQKHAFIYKLWDDPSQSSELLAEAKKLNDAQAPKVDYVVDNKFNKELGWATWEIFNLPNLNGVQVKAFIDSLRDDPSQSANLLAEAKKLNDAQAPKYVPG
notes: periplasmic fraction
Q: Does B25 bind [10]?
A: binds

B26: AQHDEALE-[Z04196]-VDYV-[Z03639]-YVPG (designed binder)
chain: AQHDEALEVDAKYAKEWKFASIEIADLPNLTQHQKDAFIFKLWDDPSQSSELLAEAKKLNDAQAPKVDYVVDNKFNKELGWATWEIFNLPNLNGVQVKAFIDSLRDDPSQSANLLAEAKKLNDAQAPKYVPG
notes: periplasmic fraction
Q: Does B26 bind [10]?
A: binds

B27: Z07064 ABD fusion protein (designed binder, not shown: large carriers; small tags and cut ends)
chain: VDAKYAKEWRYASIEIADLPNLTQRQRDAFIYKLWDDPSQSSELLSEAKKLNDSQAPK
notes: periplasmic sample
Q: B27 was tested. Which Kd [11] did it give?
A: 6.1 nM

Q: What about the “absorbance at 450 nm” value [12] of the same binder?
A: > 1 AU

B28: Z07084 ABD fusion protein (designed binder, not shown: large carriers; small tags and cut ends)
chain: VDAKYAKEWWWAGIEIADLPNLTQQQRDAFIYKLWDDPSQSSELLSEAKKLNDSQAPK
notes: periplasmic sample
Q: Which results are given for B28?
A: Kd [11]: 11 nM; absorbance at 450 nm [12]: > 1 AU
